According to PubChem BioAssay AID504333 (National Center for Advancing Translational Sciences (NCATS), 2011):
Among all 360,000 compounds or so, about 16,000 (4.4%) were called active. The shares of active, inactive and inconclusive entries below differ from those in the screen. The call rests on the fitted dose curve; in most records, active means well fitted inhibition curve with a large enough effect; inconclusive means small, poorly fitted or top-dose-only effect; inactive means no such curve, though single readings can be large or run the other way. Potencies beside an inconclusive call are fits to weak or partial responses and may not hold up.

Each molecule was assayed against Bromodomain adjacent to zinc finger domain protein 2B (Homo sapiens) (UniProt Q9UIF8) (assay: qHTS Assay for Inhibitors of BAZ2B). Conditions: AlphaScreen BAZ2B-H3K14Ac peptide displacement; activity change, negative = inhibition: at 114 µM (top of the series) unless noted.
Chain of UniProt Q9UIF8 (Q9UIF8 whole entry, looked up, the tested form may be a part): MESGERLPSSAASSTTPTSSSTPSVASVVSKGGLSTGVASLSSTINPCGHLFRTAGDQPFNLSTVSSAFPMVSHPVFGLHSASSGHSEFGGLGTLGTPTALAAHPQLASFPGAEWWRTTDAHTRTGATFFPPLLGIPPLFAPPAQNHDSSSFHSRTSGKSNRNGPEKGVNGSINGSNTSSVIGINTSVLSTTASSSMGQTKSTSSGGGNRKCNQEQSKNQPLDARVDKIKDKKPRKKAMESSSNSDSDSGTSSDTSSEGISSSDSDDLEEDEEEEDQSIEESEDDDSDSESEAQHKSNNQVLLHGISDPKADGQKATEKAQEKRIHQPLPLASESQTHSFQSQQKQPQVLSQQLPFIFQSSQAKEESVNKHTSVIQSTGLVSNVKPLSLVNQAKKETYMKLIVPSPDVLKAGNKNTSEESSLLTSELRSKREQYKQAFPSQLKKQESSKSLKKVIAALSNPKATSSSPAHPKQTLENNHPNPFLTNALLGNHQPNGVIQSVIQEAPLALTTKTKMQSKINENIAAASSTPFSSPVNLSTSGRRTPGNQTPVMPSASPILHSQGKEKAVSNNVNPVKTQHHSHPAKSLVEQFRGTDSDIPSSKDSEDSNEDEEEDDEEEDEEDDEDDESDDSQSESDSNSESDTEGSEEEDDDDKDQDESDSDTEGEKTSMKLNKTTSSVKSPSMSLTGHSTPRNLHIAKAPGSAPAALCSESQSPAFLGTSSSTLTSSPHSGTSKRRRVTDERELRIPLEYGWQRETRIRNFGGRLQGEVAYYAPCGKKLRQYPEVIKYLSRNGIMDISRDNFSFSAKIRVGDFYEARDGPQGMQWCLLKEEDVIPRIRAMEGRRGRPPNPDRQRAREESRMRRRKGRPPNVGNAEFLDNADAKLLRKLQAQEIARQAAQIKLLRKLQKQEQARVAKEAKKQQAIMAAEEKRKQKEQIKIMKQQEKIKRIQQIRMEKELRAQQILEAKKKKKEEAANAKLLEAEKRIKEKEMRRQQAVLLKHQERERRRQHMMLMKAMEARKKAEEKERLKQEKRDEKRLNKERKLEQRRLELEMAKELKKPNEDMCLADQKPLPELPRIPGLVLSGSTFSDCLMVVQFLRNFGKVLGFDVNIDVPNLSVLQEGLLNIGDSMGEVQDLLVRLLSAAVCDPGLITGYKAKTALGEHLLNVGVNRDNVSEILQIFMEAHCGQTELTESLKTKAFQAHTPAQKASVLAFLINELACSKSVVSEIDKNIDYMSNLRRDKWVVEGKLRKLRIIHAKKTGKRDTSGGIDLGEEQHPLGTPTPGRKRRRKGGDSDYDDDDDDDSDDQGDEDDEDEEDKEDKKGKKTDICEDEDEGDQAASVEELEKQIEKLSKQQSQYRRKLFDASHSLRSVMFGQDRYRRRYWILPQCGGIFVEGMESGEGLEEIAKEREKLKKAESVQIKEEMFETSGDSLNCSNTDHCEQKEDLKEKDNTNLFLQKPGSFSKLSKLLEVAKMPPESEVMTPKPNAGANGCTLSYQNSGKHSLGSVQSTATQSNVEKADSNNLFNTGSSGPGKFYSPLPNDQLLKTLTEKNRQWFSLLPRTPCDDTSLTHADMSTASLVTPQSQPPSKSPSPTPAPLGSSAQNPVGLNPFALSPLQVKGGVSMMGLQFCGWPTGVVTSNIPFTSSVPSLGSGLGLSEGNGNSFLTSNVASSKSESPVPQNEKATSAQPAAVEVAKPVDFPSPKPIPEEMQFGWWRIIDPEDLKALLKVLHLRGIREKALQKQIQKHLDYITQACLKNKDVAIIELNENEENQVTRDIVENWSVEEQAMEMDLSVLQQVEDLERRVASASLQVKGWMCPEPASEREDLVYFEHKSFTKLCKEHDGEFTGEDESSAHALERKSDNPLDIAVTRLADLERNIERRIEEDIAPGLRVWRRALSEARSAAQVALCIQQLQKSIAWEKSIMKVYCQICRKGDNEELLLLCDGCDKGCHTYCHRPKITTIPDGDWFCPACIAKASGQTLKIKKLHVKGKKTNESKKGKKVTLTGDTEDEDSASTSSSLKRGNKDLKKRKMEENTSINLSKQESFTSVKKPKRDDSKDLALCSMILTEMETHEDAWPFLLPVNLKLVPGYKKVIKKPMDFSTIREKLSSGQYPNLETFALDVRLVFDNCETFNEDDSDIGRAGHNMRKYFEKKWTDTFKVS
Outline: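 AlphaScreen displacement: compounds (up to 110uM) incubated 30 min at room temperature with a preformed 50 nM BAZ2B/50 nM biotinylated H3K14Ac peptide complex in PBS pH 7.4 with Tween-20. Donor and acceptor beads at 10 ug/mL final added, 20 min light-protected before reading.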
Further: nearly all actives have a fitted effect of over 60% in size.
On the % scale 0 is the no-effect control and ±100 the full control effect; potency means the concentration at half of the fitted maximal effect; tags describe the fitted curve by direction and shape.

SMILES | activity change, negative = inhibition | Potency
COCCOC(=O)c1c(C)oc2ccc(OS(C)(=O)=O)cc12 | inactive: -23.1% | 
CC(Sc1nnc(-c2ccccc2)c(-c2ccccc2)n1)C(=O)Nc1ncc(Cl)cc1Cl (stereo not given) |  | inconclusive: 70.8 µM [inhibitor, single point]
O=C(Cc1c[nH]c2ccccc12)OCC(=O)c1ccccc1 |  | inconclusive: 100 µM [inhibitor, single point]
COc1ccc(C(=O)NC(=S)N2CCN(c3ccccc3OC)CC2)cc1OC |  | inconclusive: 70.8 µM [inhibitor, single point]
Cc1cc(-c2csc(N)n2)c(C)n1-c1ccc(Cl)c(Cl)c1 |  | inconclusive: 70.8 µM [inhibitor, single point]
CCOc1ccc(-n2c(SCc3ccc(C(=O)OC)o3)nc3c(c2=O)SCC3)cc1 |  | inconclusive: 17.8 µM [inhibitor, full curve, poor fit]
CCOC(=O)N/N=C\c1ccc(-c2cccc(C(F)(F)F)c2)o1 |  | inconclusive: 70.8 µM [inhibitor, single point]
COc1ccc(C2C=C(c3ccccc3)Nc3ncnn32)cc1 (stereo not given) |  | inconclusive: 89.1 µM [inhibitor, single point]
CCOc1ccc(Oc2ccc(C(F)(F)F)cc2NC(=O)C2=COCCO2)cc1 | inactive: 3.61% | 
O=C(COC(=O)COc1ccccc1)NC1CCCc2ccccc21 (stereo not given) | inactive: 3.7% | 
O=C(CCc1nnc(-c2ccsc2)o1)N1CCCCC1CCn1ccnc1 (stereo not given) | inactive: 0.261% | 
Cc1ccc(N2CCN(/N=C/c3ccccc3[N+](=O)[O-])CC2)cc1 |  | inconclusive: 7.94 µM [inhibitor, full curve]
CCOc1ccc(NC(=O)c2ccc(NC(=O)COC(=O)c3ccc(NC(=O)CC#N)cc3)cc2)cc1 |  | inconclusive: 89.1 µM [inhibitor, single point]
CCOc1ccccc1NC(=O)Nc1cc2c(cc1N1CCCCC1)n(CC)c(=O)n2CC |  | inconclusive: 22.4 µM [inhibitor, full curve]
CCCN(CC1CC1)C(=O)COC(=O)c1oc2c(F)cccc2c1C | inactive: 18.4% | 
CC(=O)Nc1cccc(NC(=O)CSc2nnc(Cc3cccn3C)n2CCc2ccccc2)c1 | inactive: -37.4% | 
Cc1ccc(C2C(C#N)=C(N)Oc3cc4c(cc32)OCO4)cc1 (stereo not given) |  | inconclusive: 89.1 µM [inhibitor, single point]
CCOC(=O)C1CCCN(Cc2nc3ccc([N+](=O)[O-])cc3c(=O)n2-c2ccc(OC)cc2OC)C1 (stereo not given) | inactive: -37% | 
CC(=O)N1CCC(C(=O)N2CCN(S(=O)(=O)c3ccc(F)cc3)CC2)CC1 | inactive: -32.8% | 
OCCN(Cc1ccccc1)CC(O)COc1ccc(-c2ccccc2)cc1 (stereo not given) |  | inconclusive: 50.1 µM [inhibitor, partial curve]
